Test results reported in PubChem BioAssay AID1346428 (National Center for Advancing Translational Sciences (NCATS), 2018).
Where “and” joins values, the source holds several entries; their conditions need not be identical. Equal values may be shown once. The campaign covered roughly 48,000 compounds. About 1,200 (2.5%) were called active. Another 2% or so got no clear call; they are omitted.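 Rule for the calls: active = activation of at least 60% and not above a set upper limit (about 1 call in 100 departs from these limits); inconclusive = activation of 40% to 60%, or above that upper limit; inactive = activation under 40%.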 The list shows a part of the results.

target: Probable G-protein coupled receptor 32 (Homo sapiens) (UniProt O75388); assay: qHTS for Agonists of Human Resolvin D1 Receptor DRV1; conditions: CHO-K1 GPR32 beta-arrestin PathHunter luminescence, 90 min; at 76.9 µM; hits give high values; zero percent set by DMSO-only wells; note: 0% is about no effect
Chain of UniProt O75388 (O75388 whole entry, looked up, the tested form may be a part): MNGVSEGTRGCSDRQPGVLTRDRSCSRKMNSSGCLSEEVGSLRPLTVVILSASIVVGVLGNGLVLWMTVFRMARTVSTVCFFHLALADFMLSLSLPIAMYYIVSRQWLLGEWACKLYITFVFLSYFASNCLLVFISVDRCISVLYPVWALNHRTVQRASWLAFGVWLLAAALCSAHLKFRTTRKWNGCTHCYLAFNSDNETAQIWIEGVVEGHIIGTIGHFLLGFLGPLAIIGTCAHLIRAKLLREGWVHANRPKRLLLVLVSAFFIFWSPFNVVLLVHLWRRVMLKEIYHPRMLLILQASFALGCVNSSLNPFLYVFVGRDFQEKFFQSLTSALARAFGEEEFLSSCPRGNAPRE
Outline: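 Agonism was scored by beta-Gal fragment complementation (chemiluminescent read, 1 h detection at ambient temperature) reporting beta-arrestin binding to GPR32 in engineered CHO-K1 cells. Compound treatment lasted 90 min at 37 C, normalized to a DMSO basal control.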

SMILES | activation
Cc1cc(Nc2ccccc2F)n2nc(-c3ccccc3)nc2n1 | inactive: 6.48%
COc1ccc(NC(=O)CN2C(=O)CCn3nc(-c4cccn4C)cc32)cc1 | inactive: 12%
Cc1cc(C)c(Nc2nc3ccccc3n3c(C)nnc23)c(C)c1 | inactive: -9.04%
COc1ccccc1OCCn1c(NC(=O)c2ccccc2Cl)nc2ccccc21 | inactive: -28.8%
Cc1ccc(NC(=O)C(=O)NCC(c2cccnc2)N2CCN(Cc3ccccc3)CC2)cc1C (centres undefined) | inactive: -9.3%
CCN(CC)C(=O)Cn1c(=O)cc(C)c2c(C)nn(-c3cccc(Cl)c3C)c21 | active: 94%
COc1cccc(CNC(=O)C2CCC(CNS(=O)(=O)c3ccc4c(c3)CCCC(=O)N4)CC2)c1 (centres undefined) | inactive: 9.71%
Cc1ccc(NC(=O)CSc2nnc3scc(-c4ccc(Cl)cc4)n23)cc1 | inactive: 1.96%
CNc1c(NC(=O)c2ccc(OC)c(OC)c2)c(=O)oc2ccccc12 | inactive: 9.52%
CCOc1ccc(-c2cc(C(=O)N3CCN(c4cc(Cl)ccc4C)CC3)c3ccccc3n2)cc1 | inactive: -9.61%
CCN(CC)CCCNc1oc(/C=C/c2ccc(OC)c(OC)c2)nc1C#N | inactive: -16.3%
COc1ccc(NC(=O)Cn2cc(S(=O)(=O)N3CCN(c4ccccc4F)CC3)c3ccccc3c2=O)cc1Cl | inactive: -14%
Cc1ccc(Nc2nc3nonc3nc2Nc2cccc(C(F)(F)F)c2)cc1Cl | inactive: 15.6%
CCOC(=O)C1=C(CN2CCN(c3ccc(OC)cc3)CC2)NC(=O)NC1c1ccc(OC)cc1 (centres undefined) | inactive: -17.5%
Cc1ccc(NC(=O)C(Cc2c[nH]c3ccccc23)NC(=O)OC(C)(C)C)c(C)c1 (centres undefined) | inactive: -13.3%
Cc1cc(C)cc(NC(=O)NCCc2c(C)nn(C)c2C)c1 | inactive: 5.65%
Cc1cc2c(cc1S(=O)(=O)CCC(=O)N1CCC(C)CC1)OCC(=O)N2 | inactive: -0.0125%
CCc1ccc(C(=O)c2cn(CC(=O)Nc3ccc4c(c3)OCO4)c3ccc(CC)cc3c2=O)cc1 | inactive: 16.2%
CCC(C)NC(=O)CCCN1C(=O)CCn2nc(-c3cccn3C)cc21 (centres undefined) | inactive: 6.88%
COc1ccc(-c2ccc3c(N)c(C(=O)c4ccc(OC)c(OC)c4)sc3n2)cc1 | inactive: -7.11%
CCc1ccc(-n2c(=O)c3c4c(sc3n(CC(=O)c3ccc(F)cc3)c2=O)CCC4)cc1 | inactive: -17.7%

SMILES | activation
CCCc1cc(=O)[nH]c(SCC(=O)N2CCN(c3ccccc3)CC2)n1 | inactive: -3.51%
COc1ccc(CNC(=O)CSCc2nc(-c3ccccc3C)oc2C)cc1 | inactive: -10.8%
COc1ccc(CNC(=O)c2ccc(-c3nc(CSc4ccccc4)c(C)o3)cc2)cc1OC | inactive: 8.67%
CCc1cccc(NC(=O)COC(=O)c2cn(CC)c3nc(C)ccc3c2=O)c1 | inactive: 3.06%
CC(C)c1nn2c(=O)cc(COC(=O)c3ccc(NC(=O)COc4ccccc4)cc3)nc2s1 | inactive: -18.1%
COc1ccccc1C(=O)Nc1ccccc1OCc1cc(=O)n2c(C)csc2n1 | inactive: -4.82%
O=S(=O)(c1ccc(-c2cc(C(F)(F)F)on2)s1)N1CCN(c2ccccc2F)CC1 | inactive: -1.27%
COc1ccc(NC(=O)CN2C(=O)CCn3nc(-c4cccn4C)cc32)cc1Cl | inactive: -16.9%
CCCN1CCN(c2ncnc3sc(C(=O)Nc4ccc(C(C)C)cc4)c(C)c23)CC1 | inactive: -6.97%
CCOC(=O)c1sc2cccc(F)c2c1S(=O)(=O)NCc1ccccc1Cl | inactive: -16.1%
O=C(CS(=O)(=O)c1cccc2nsnc12)N1CCN(c2cccc(Cl)c2)CC1 | inactive: 1.37%
COc1ccc(-c2cc(-c3ccccc3)c(C#N)c(SCC(O)CS(=O)(=O)Cc3ccc(Cl)cc3)n2)cc1 (centres undefined) | inactive: -1.65%
CC(=O)Nc1nonc1-c1nnc(SCC(=O)Nc2ccc(C)cc2)n1-c1ccccc1 | inactive: -21.1%
Cc1ccc(N(CC(=O)NCCc2ccc(Cl)cc2)S(=O)(=O)c2c(C)noc2C)cc1 | inactive: 31.9%
Cc1ccc(C(c2sc3nc(-c4ccco4)nn3c2O)N2CCCC2)cc1 (centres undefined) | inactive: 22.7%
COc1cccc(N2CCN(C(=O)c3ccc(C)c(NC(=O)c4nsc5ccccc45)c3)CC2)c1 | inactive: -6.35%
COc1cc(SC)ccc1C(=O)Nc1ccc(S(=O)(=O)Nc2nccc(C)n2)cc1 | inactive: 4.56%
Cc1ccc(NC(=O)CN2C(=O)c3ccccc3Sc3ccc(C(=O)N4CCOCC4)cc32)cc1F | inactive: -11.4%
CC(C)OC(=O)C(C)(C)Oc1ccc(C(=O)c2ccc(Cl)cc2)cc1 | inactive: -8.8% and inactive: -0.062%
Cc1cccc(NC(=O)Cn2nnc(-c3nc(-c4ccncc4)no3)c2N)c1 | inactive: -13.5%
COc1ccc(CN2CCc3c(c(=O)n4ncc(C(=O)N5CCN(c6ccccc6OC)CC5)c4n3C)C2)cc1 | inactive: 13.9%

SMILES | activation
COc1cc(NC(=O)c2cc(C3CC3)nc3c2c(C)nn3-c2ccccc2)cc(OC)c1 | inactive: -36%
COC(=O)Cn1c(=O)c2cccn2c2ccc(F)cc21 | inactive: -6.49%
Cc1ccccc1N1CCN(S(=O)(=O)c2nnc(NC(=O)c3ccc(C(C)C)cc3)s2)CC1 | inactive: 2.2%
CCOc1ccc(C(=O)Cn2c(=O)n3nc(CCn4nc(C)cc4C)nc3c3cc(OC)c(OC)cc32)cc1 | inactive: -5.18%
Cc1cccc(N(C)c2nc3ccccc3c3nnc(C)n23)c1 | inactive: -22.7%
Cc1ccc(NC(=O)CSc2nnc(-c3ccc([N+](=O)[O-])cc3)o2)c(C)c1 | inactive: 0.0635%
Cc1ccc(C(=O)c2cn(CC(=O)Nc3ccc(C(C)C)cc3)c3nc(C)ccc3c2=O)cc1 | inactive: 17.1%
CCS(=O)(=O)N1CCCC(C(=O)NCCOC)C1 (centres undefined) | inactive: -8.82%
CCCCCn1c(NCc2ccc(OC)cc2)nc2ccccc21 | inactive: 5.78%
CCOc1ccc(-c2nc3c(c(SCC(=O)Nc4ccccc4C)n2)Cc2ccccc2O3)cc1 | inactive: 4%
COc1ccccc1OC(C)C(=O)Nc1cccc(-c2nc3ccccc3s2)c1 (centres undefined) | inactive: -1.6%
COc1ccc(-n2nc(C(=O)Nc3ccccn3)c3c4ccccc4n(C)c3c2=O)cc1 | inactive: 8.07%
CCOC(=O)c1ccc(NC(=O)c2cnc3c(-c4ccc(F)cc4)c(C)nn3c2C)cc1 | inactive: -6.75%
Cc1cc(C)n(-c2nc3ccccc3nc2Nc2ccc(N(C)C)cc2)n1 | inactive: -12.8%
Cc1ccccc1NC(=O)CC(NCc1cccnc1)C(=O)O (centres undefined) | inactive: -4.22%
CCc1ccc(CNC(=O)c2cnc3sc(N4CCCC4)nn3c2=O)cc1 | inactive: -0.732%
Cc1ccc(Cl)cc1NC(=O)C1CCN(c2nnc(C)c3c(C)n(-c4ccccc4)nc23)CC1 | inactive: -8.49%
CN(C)c1ccc(CNC(=O)c2ccc(Cn3c(SCc4ccccc4)nc4cccnc43)cc2)cc1 | inactive: -31.2%
Cc1ccccc1CNC(=O)c1ccc2c(c1)c(C)c(C)n2C | inactive: -22.5%
Cc1cc(C)c(Cn2c3ccccc3c3cnn(CC(=O)NCc4cccs4)c(=O)c32)c(C)c1 | inactive: -16.9%
Cc1ccccc1Cn1nnc2c(=O)[nH]c(C3CCN(C(=O)c4ccc(F)cc4)CC3)nc21 | inactive: -13.7%

SMILES | activation
COc1ccc(-c2noc(CNC(=O)c3ccccc3Br)n2)cc1 | inactive: 9.52%
CCOc1ccc(-c2cccc(NS(=O)(=O)c3ccc(F)cc3F)c2)nn1 | inactive: -12.9%
Cc1ccc(S(=O)(=O)CC(=O)Nc2nc3c(C)cc(C)cc3s2)cc1 | inactive: -12.5%
Cc1cccc(C(=O)Nc2nnc(S(=O)(=O)N(C)Cc3ccccc3)s2)c1 | inactive: 43.9%
COc1ccc(C(=O)c2oc3ccccc3c2NC(=O)c2cc(=O)c3ccc(C)cc3o2)cc1Cl | inactive: -7.94%
CCCOc1ccc(C2c3c(-c4ccccc4O)n[nH]c3C(=O)N2CCc2ccccc2)cc1OCC (centres undefined) | inactive: 6.82%
COc1cccc(NC(=O)c2cccc3c(=O)c4c([nH]c23)CCCC4)c1 | inactive: 1.19%
CCOc1ccc(OCC)c(NC(=O)c2cc(S(=O)(=O)N3CCc4ccccc43)cn2C)c1 | inactive: -27.5%
C1CCc2nnnn2CC1 | inactive: -11.2%
CCOc1ccc2ncc3c(-c4ccc(C)cc4)nn(-c4cccc(F)c4)c3c2c1 | inactive: -2.01%
O=S(=O)(c1cccc(Cl)c1)c1nnn2c1nc(NCc1ccc3c(c1)OCO3)c1sccc12 | inactive: -22.3%
Cc1ccc(S(=O)(=O)NCC(c2ccco2)N2CCOCC2)cc1 (centres undefined) | inactive: 13.2%
COc1ccc(-c2nc3c(c(SCC(=O)N4CCCCC4)n2)Cc2cc(C)ccc2O3)cc1 | inactive: -7.38%
CCOC(=O)CSc1nc(-c2ccc(OCC)cc2)cc(C(F)(F)F)c1C#N | inactive: -13.6%
CC(=O)Nc1ccc(/C=C/c2noc(-c3ccccc3O)n2)cc1 | inactive: -2.89%
Cc1ccc(C)c(N2CCN(C(=O)Cn3cnc4onc(-c5ccc(F)cc5)c4c3=O)CC2)c1 | inactive: -9.05%
O=C(O)c1ccccc1S | inactive: 1.74%
CCc1nnc(NC(=O)c2cc(=O)c3cc(C)ccc3o2)s1 | inactive: -0.388%
COc1ccccc1CNC(=O)C(=O)NCC(c1cccs1)S(=O)(=O)c1ccccc1 (centres undefined) | inactive: 0.0195%
Cc1ccc2oc(=O)c3cc(C(=O)NCCCOC(C)C)sc3c2c1 | inactive: -10%
CCc1cccc(NC(=O)Cn2c(C(=O)OC)cc3sc(Cl)cc32)c1 | inactive: -0.103%
